B1: COVIC-316 (antibody)
chain: EVQLLESGGGLVQPGGSLRLSCAASGRTFSEYAMGWFRQAPGKGLEFVSTISWSGGSTYYADSVKGRFTISRDNSKNTLYLQMNSLRAEDTAVYYCAAAGLGTVVSEWDYDYDYWGQGTLVTVSSGGSGGSEVQLLESGGGLVQPGGSLRLSCAASGRTFSEYAMGWFRQAPGKGLEFVSTISWSGGSTYYADSVKGRFTISRDNSKNTLYLQMNSLRAEDTAVYYCAAAGLGTVVSEWDYDYDYWGQGTLVTVSSGGGGSGGGGS[omitted - human IgG1 Fc]KKKPLDGEYFTLQIRGRERFEMFRELNEALELKDAQAGKEPGGGGGSGGGGSEVQLLESGGGLVQPGGSLRLSCAASGRTFSEYAMGWFRQAPGKGLEFVSTISWSGGSTYYADSVKGRFTISRDNSKNTLYLQMNSLRAEDTAVYYCAAAGLGTVVSEWDYDYDYWGQGTLVTVSSGGSGGSEVQLLESGGGLVQPGGSLRLSCAASGRTFSEYAMGWFRQAPGKGLEFVSTISWSGGSTYYADSVKGRFTISRDNSKNTLYLQMNSLRAEDTAVYYCAAAGLGTVVSEWDYDYDYWGQGTLVTVSS
B2: COVIC-62 (antibody)
chain: QVQLQESGGGLVQAGGSLRLSCAASGRTFSEYAMGWFRQAPGKEREFVATISWSGGSTYYTDSVKGRFTISRDNAKNTVYLQMNSLKPDDTAVYYCAAAGLGTVVSEWDYDYDYWGQGTQVTVSSGGSGGSQVQLQESGGGLVQAGGSLRLSCAASGRTFSEYAMGWFRQAPGKEREFVATISWSGGSTYYTDSVKGRFTISRDNAKNTVYLQMNSLKPDDTAVYYCAAAGLGTVVSEWDYDYDYWGQGTQVTVSSGGGGSGGGGS[omitted - human IgG1 Fc]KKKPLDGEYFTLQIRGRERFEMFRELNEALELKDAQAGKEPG
B3: COVIC-319 (antibody)
chain: SLDQINVTFLDLEYEMKKLEEAIKKLEESYIDLKELGSGSG[omitted - human IgG1 Fc]KKKPLDGEYFTLQIRGRERFEMFRELNEALELKDAQAGKEPGGGGGSGGGGSEVQLLESGGGLVQPGGSLRLSCAASGRTFSEYAMGWFRQAPGKGLEFVSTISWSGGSTYYADSVKGRFTISRDNSKNTLYLQMNSLRAEDTAVYYCAAAGLGTVVSEWDYDYDYWGQGTLVTVSSGGSGGSEVQLLESGGGLVQPGGSLRLSCAASGRTFSEYAMGWFRQAPGKGLEFVSTISWSGGSTYYADSVKGRFTISRDNSKNTLYLQMNSLRAEDTAVYYCAAAGLGTVVSEWDYDYDYWGQGTLVTVSS
B4: COVIC-371 (antibody)
chain: EVQLVESGGGLVQPGGSLRLSCAASGFTFSPSWMGWFRQAPGKEREFVATINEYGGRNYADSVKGRFTISADNSKNTAYLQMNSLKPEDTAVYYCARVDRDFDYWGQGTLVTVSSGGGGS[omitted - human IgG1 Fc with C220S (EU numbers)]GGGSGGGGSASEVQLVESGGGLVQPGGSLRLSCAASGSTFSINAMGWFRQAPGKEREFVAGITSSGGYTNYADSVKGRFTISADNSKNTAYLQMNSLKPEDTAVYYCAADGVPEYSDYASGPVWGQGTLVTVSSEVQLVESGGGLVQPGGSLRLSCAASGSTFSINAMGWFRQAPGKEREFVAGITSSGGYTNYADSVKGRFTISADNSKNTAYLQMNSLKPEDTAVYYCAADGVPEYSDYASGPVWGQGTLVTVSS
B5: COVIC-320 (antibody)
chain: EVQLLESGGGLVQPGGSLRLSCAASGRTFSEYAMGWFRQAPGKGLEFVSTISWSGGSTYYADSVKGRFTISRDNSKNTLYLQMNSLRAEDTAVYYCAAAGLGTVVSEWDYDYDYWGQGTLVTVSSGGSGGSEVQLLESGGGLVQPGGSLRLSCAASGRTFSEYAMGWFRQAPGKGLEFVSTISWSGGSTYYADSVKGRFTISRDNSKNTLYLQMNSLRAEDTAVYYCAAAGLGTVVSEWDYDYDYWGQGTLVTVSSGGGGSGGGGS[omitted - human IgG1 Fc]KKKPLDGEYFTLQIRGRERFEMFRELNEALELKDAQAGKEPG
B6: COVIC-8 (antibody)
chain: SRNGGDGNFMLTQPHSVSESPGKTVTISCTRSSGSIASNYVQWYQQRPGSAPTTVIYEDNQRPSGVPDRFSGSIDSSSNSASLTISGLKTEDEADYYCQSYDTHTMQVVFGTGTKVTVSSQTGGSGGGGSGGGGSGGGGS[omitted - about 100 residues]ATHFSSSDIFAFDIWGQGTMVTVSSSS
B7: COVIC-6 (antibody)
chain: SRNGGDGNFMLTQPHSVSESPGKTVTISCTRSSGSIASNYVQWYQQRPGSAPTTVIYEDNQRPSGVPDRFSGSIDSSSNSASLTISGLKTEDEADYYCQSYDAHNVVFGTGTKVTVSSQTGGSGGGGSGGGGSGGGGS[omitted - about 100 residues]GTYFGSVHMYAFDIWGQGTMVTVSSS
B8: COVIC-65 (antibody)
chain: QVQLQESGGGLVQAGGSLRLSCAASGRTFSEYAMGWFRQAPGKEREFVATISWSGGSTYYTDSVKGRFTISRDNAKNTVYLQMNSLKPDDTAVYYCAAAGLGTVVSEWDYDYDYWGQGTQVTVSSGGSGGSQVQLQESGGGLVQAGGSLRLSCVASGSIFSINAMDWYRQAPGKQRELVAGITSGGSTNYGDFVKGRFTISRDNAKNTVYLQMDSLKPEDTAVYYCAAEVGGWGPPRPDYWGHGTQVTVSSGGGGSGGGGS[omitted - human IgG1 Fc]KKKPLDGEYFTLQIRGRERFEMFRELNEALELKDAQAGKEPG
B9: COVIC-73 (antibody)
chain: [omitted - about 100 residues]SVYYGSGAFDIWGQGTMVTVSSGGGGSQSVLTQPPSVSVSPGQTASITCSGDSLGSKYACWYQQKPGQSPVLVIYQDSKRPSGIPERFSGSNSGNTATLTISGTQAMDEADYYCQAWDPHWTVVFGTGTKVTVSSS
B10: COVIC-314 (antibody)
chain: EVQLLESGGGLVQPGGSLRLSCAASGRTFSEYAMGWFRQAPGKGLEFVSTISWSGGSTYYADSVKGRFTISRDNSKNTLYLQMNSLRAEDTAVYYCAAAGLGTVVSEWDYDYDYWGQGTLVTVSSGGSGGSEVQLLESGGGLVQPGGSLRLSCAASGRTFSEYAMGWFRQAPGKGLEFVSTISWSGGSTYYADSVKGRFTISRDNSKNTLYLQMNSLRAEDTAVYYCAAAGLGTVVSEWDYDYDYWGQGTLVTVSSGGSGGSEVQLLESGGGLVQPGGSLRLSCAASGRTFSEYAMGWFRQAPGKGLEFVSTISWSGGSTYYADSVKGRFTISRDNSKNTLYLQMNSLRAEDTAVYYCAAAGLGTVVSEWDYDYDYWGQGTLVTVSSGGGGSGGGGS[omitted - human IgG1 Fc]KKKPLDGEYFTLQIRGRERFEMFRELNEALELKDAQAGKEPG
B11: COVIC-318 (antibody)
chain: SLDQINVTFLDLEYEMKKLEEAIKKLEESYIDLKELGSGSG[omitted - human IgG1 Fc]KKKPLDGEYFTLQIRGRERFEMFRELNEALELKDAQAGKEPGGGGGSGGGGSEVQLLESGGGLVQPGGSLRLSCAASGRTFSEYAMGWFRQAPGKGLEFVSTISWSGGSTYYADSVKGRFTISRDNSKNTLYLQMNSLRAEDTAVYYCAAAGLGTVVSEWDYDYDYWGQGTLVTVSS
B12: COVIC-370 (antibody)
chain: EVQLVESGGGLVQPGGSLRLSCAASGSTFSINAMGWFRQAPGKEREFVAGITSSGGYTNYADSVKGRFTISADNSKNTAYLQMNSLKPEDTAVYYCAADGVPEYSDYASGPVWGQGTLVTVSSGGGGSGGGGSASEVQLVESGGGLVQPGGSLRLSCAASGFTFSPSWMGWFRQAPGKEREFVATINEYGGRNYADSVKGRFTISADNSKNTAYLQMNSLKPEDTAVYYCARVDRDFDYWGQGTLVTVSSGGGGS[omitted - human IgG1 Fc with C220S (EU numbers)]
B13: COVIC-7 (antibody)
chain: SRNGGDGQSVLTQPPSVSVSPGQTASITCSGDSLGSKYACWYQQKPGQSPVLVIYQDSKRPSGIPERFSGSNSGNTATLTISGTQAMDEADYYCQAWDPHWTVVFGTGTKVTVSSQTGGSGGGGSGGGGSGGGGS[omitted - about 100 residues]SVYYGSGAFDIWGQGTMVTVSSS
B14: COVIC-315 (antibody)
chain: EVQLLESGGGLVQPGGSLRLSCAASGRTFSEYAMGWFRQAPGKGLEFVSTISWSGGSTYYADSVKGRFTISRDNSKNTLYLQMNSLRAEDTAVYYCAAAGLGTVVSEWDYDYDYWGQGTLVTVSSGGSGGSEVQLLESGGGLVQPGGSLRLSCAASGRTFSEYAMGWFRQAPGKGLEFVSTISWSGGSTYYADSVKGRFTISRDNSKNTLYLQMNSLRAEDTAVYYCAAAGLGTVVSEWDYDYDYWGQGTLVTVSSGGGGSGGGGS[omitted - human IgG1 Fc]KKKPLDGEYFTLQIRGRERFEMFRELNEALELKDAQAGKEPGGGGGSGGGGSEVQLLESGGGLVQPGGSLRLSCAASGRTFSEYAMGWFRQAPGKGLEFVSTISWSGGSTYYADSVKGRFTISRDNSKNTLYLQMNSLRAEDTAVYYCAAAGLGTVVSEWDYDYDYWGQGTLVTVSS

Target: SARS-CoV-2 spike RBD (Wuhan-Hu-1) (Severe acute respiratory syndrome …)
Assay: SPR

Q: For B1, which Kd is on record?
A: 34.1 nM

Q: How did the Kd turn out when B2 was run?
A: 63.8 nM

Q: For B3, which Kd is on record?
A: 30.9 nM

Q: With B4 as the binder, how does the Kd read?
A: 1.17 nM

Q: With B5 as the binder, how does the Kd read?
A: 30.7 nM

Q: B6 was tested. Which Kd did it give?
A: 23.6 nM

Q: B7 was tested. Which Kd did it give?
A: 87.1 nM

Q: How did the Kd turn out when B8 was run?
A: 51 nM

Q: B9 was tested. Which Kd did it give?
A: 24.9 nM

Q: For B10, which Kd is on record?
A: 22.8 nM

Q: B11 was tested. Which Kd did it give?
A: 58.7 nM

Q: With B12 as the binder, how does the Kd read?
A: 0.116 nM

Q: Which Kd does the source give for B13 here?
A: 17.2 nM

Q: For B14, which Kd is on record?
A: 44.5 nM

From article PMC12014896 (2025)
